# About 160 (5.9%) of roughly 2,700 compounds showed an effect of 50% or more. This is one part of the list.
# Target: Nonstructural protein 3 (Zika virus) (UniProt A0A024AXB9)
# [1] = PRVABC59, Concentration 50.0 uM, Number of replicates 1.0
# [2] = PRVABC59, Concentration 15.0 uM, Number of replicates 1.0
# [3] = PRVABC59, Concentration 10.0 uM, Number of replicates 1.0
# Chain of UniProt A0A024AXB9 (A0A024AXB9 as listed by the source): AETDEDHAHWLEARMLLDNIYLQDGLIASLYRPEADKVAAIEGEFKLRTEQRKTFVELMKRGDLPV
smiles,measurement,setting,value
CNC(=O)c1cc(Cl)ccc1N(C)S(=O)(=O)c1ccc(Oc2ccccc2Cl)cc1,inhibition,"PRVABC59, Concentration 49.5 uM, Number of replicates 2.0, Standard deviation 2.1633243985477817 %",5.01%
same,inhibition,"PRVABC59, Concentration 99.01 uM, Number of replicates 2.0, Standard deviation 2.204675683146184 %",6.67%
same,inhibition,"PRVABC59, Concentration 198.0 uM, Number of replicates 2.0, Standard deviation 3.6933219286886705 %",9.59%
O=Cc1ccc(N2CCC(C(=O)N[C@H]3CC(=O)N(c4ccccc4Cl)C3)CC2)cc1,inhibition,[1],26.5%
CC(C)Nc1nc2ccc(C(=O)Nc3ccc(-c4cc[nH]c4)cc3)cc2[nH]1,inhibition,"PRVABC59, Concentration 49.5 uM, Number of replicates 2.0, Standard deviation 1.4042524076086362 %",8.43%
same,inhibition,"PRVABC59, Concentration 99.01 uM, Number of replicates 2.0, Standard deviation 2.5882696614840826 %",11.3%
Cn1cc(NC(=O)c2ccccc2C(F)(F)F)c(-c2ccc(O)cc2)n1,inhibition,"PRVABC59, Concentration 49.5 uM, Number of replicates 2.0, Standard deviation 1.758470706884018 %",-3.57%
same,inhibition,"PRVABC59, Concentration 99.01 uM, Number of replicates 2.0, Standard deviation 0.898985703829002 %",-1.76%
same,inhibition,"PRVABC59, Concentration 198.0 uM, Number of replicates 2.0, Standard deviation 1.9123879130233277 %",-1.31%
CC(C)c1ccc2c(c1)CC[C@H]1[C@](C)(CNC(=O)c3cc(Cl)ccc3NS(=O)(=O)c3ccc(Oc4ccccc4Cl)cc3)CCC[C@]21C,inhibition,[2],27.8%
CC(C)CN1CCN(C(=O)c2cc(Cl)ccc2NS(=O)(=O)c2ccc(Oc3ccccc3Cl)cc2)[C@@H](C)C1=O,inhibition,[2],1.19%
O=Cc1ccc(N2CCC(C(=O)N[C@H](c3ccccc3)c3ccco3)CC2)cc1,inhibition,[3],12.4%
CN(Cc1nc2ccsc2c(=O)[nH]1)C(=O)C1CCN(c2ccc(C=O)cc2)CC1,inhibition,[1],20.6%
COc1cc(Br)ccc1NC(=O)c1cc(Cl)ccc1NS(=O)(=O)c1ccc(Oc2ccccc2Cl)cc1,inhibition,[2],56.4%
Cc1cc(C)c(CNC(=O)c2cc(Cl)ccc2NS(=O)(=O)c2ccc(Oc3ccccc3Cl)cc2)c(=O)[nH]1,inhibition,[2],15.9%
Cc1cc(CO)c2cccc(Cc3cccc(C(=O)N[C@H]4C[C@@H](O)C4)c3)c2n1,inhibition,"PRVABC59, Concentration 49.95 uM, Number of replicates 2.0, Standard deviation 0.15730350258545148 %",-6.02%
same,inhibition,"PRVABC59, Concentration 99.9 uM, Number of replicates 2.0, Standard deviation 1.5625510183608542 %",-0.827%
CN1CCN(Cc2cccc(CNC(=O)c3cc(Cl)ccc3NS(=O)(=O)c3ccc(Oc4ccccc4Cl)cc3)c2)CC1,inhibition,[2],-2.59%
Cc1nc(NC(=O)c2cc(Cl)ccc2NS(=O)(=O)c2ccc(Oc3ccccc3Cl)cc2)ccc1Br,inhibition,[2],42.3%
O=C(c1cc(Cl)ccc1NS(=O)(=O)c1ccc(Oc2ccccc2Cl)cc1)N(Cc1c(F)cccc1Cl)C1CC1,inhibition,[2],18.6%
O=Cc1ccc(N2CCC(C(=O)NCc3cc(F)cc(Cl)c3)CC2)cc1,inhibition,[3],5.44%
CCn1c(CNC(=O)c2ccc(O)c(NC(=O)c3ccncc3F)c2C)n[nH]c1=O,inhibition,"PRVABC59, Concentration 49.5 uM, Number of replicates 2.0, Standard deviation 0.8304284599294235 %",-2.63%
same,inhibition,"PRVABC59, Concentration 99.01 uM, Number of replicates 2.0, Standard deviation 0.5414958818785077 %",-0.777%
same,inhibition,"PRVABC59, Concentration 198.0 uM, Number of replicates 2.0, Standard deviation 0.23639933414751227 %",0.661%
Cc1cc(NC(=O)c2cc(Cl)ccc2NS(=O)(=O)c2ccc(Oc3ccccc3Cl)cc2)c(F)cc1Br,inhibition,[2],31.3%
COc1cc(-c2ccccc2C(=O)Nc2cnn(C)c2)ccc1O,inhibition,"PRVABC59, Concentration 49.5 uM, Number of replicates 2.0, Standard deviation 0.23383160062225883 %",-0.446%
same,inhibition,"PRVABC59, Concentration 99.01 uM, Number of replicates 2.0, Standard deviation 1.185346396890086 %",0.346%
same,inhibition,"PRVABC59, Concentration 198.0 uM, Number of replicates 2.0, Standard deviation 1.4497559575754835 %",-0.045%
Cc1[nH]nc2ccc(C(=O)NC3(C)CN(C(=O)c4cnc(N)s4)C3)c(Cl)c12,inhibition,"PRVABC59, Concentration 49.5 uM, Number of replicates 2.0, Standard deviation 2.21182016402466 %",0.035%
same,inhibition,"PRVABC59, Concentration 99.01 uM, Number of replicates 2.0, Standard deviation 2.523819796559285 %",2.83%
same,inhibition,"PRVABC59, Concentration 198.0 uM, Number of replicates 2.0, Standard deviation 5.711384853620139 %",8.57%
O=S(=O)(c1ccc(Oc2ccccc2Cl)cc1)N1CCc2[nH]c3ccc(Cl)cc3c2C1,inhibition,"PRVABC59, Concentration 49.5 uM, Number of replicates 2.0, Standard deviation 2.489781748820796 %",4.51%
same,inhibition,"PRVABC59, Concentration 99.01 uM, Number of replicates 2.0, Standard deviation 1.8608073011659256 %",6.8%
same,inhibition,"PRVABC59, Concentration 198.0 uM, Number of replicates 2.0, Standard deviation 2.526780444079781 %",11.2%
Cc1cc(CO)c2cccc(Cc3ccccc3C(=O)Nc3cccc(C(N)=O)c3)c2n1,inhibition,"PRVABC59, Concentration 49.95 uM, Number of replicates 2.0, Standard deviation 0.5610502494199251 %",-2.71%
same,inhibition,"PRVABC59, Concentration 99.9 uM, Number of replicates 2.0, Standard deviation 0.1363299663609753 %",0.693%
CCCCN(Cc1ccc(F)cc1)C(=O)C1CCN(c2ccc(C=O)cc2)CC1,inhibition,[1],28.4%
O=Cc1ccc(N2CCC(C(=O)Nc3ccc(Br)c(Cl)c3Cl)CC2)cc1,inhibition,[1],20.9%
O=C(c1cc(Cl)ccc1NS(=O)(=O)c1ccc(Oc2ccccc2Cl)cc1)N1CCC[C@H](c2nc3ccccc3o2)C1,inhibition,[2],14.6%
Cc1[nH]c(=O)c(NC(=O)c2cc(Cl)ccc2NS(=O)(=O)c2ccc(Oc3ccccc3Cl)cc2)cc1Br,inhibition,[2],25.9%
Cc1ccc(CN(CCN(C)C)C(=O)C2CCN(c3ccc(C=O)cc3)CC2)s1,inhibition,[1],25.1%
Cc1cc(CO)c2cccc(Cc3ccccc3NC(=O)[C@@H](N)CC(N)=O)c2n1,inhibition,"PRVABC59, Concentration 49.95 uM, Number of replicates 2.0, Standard deviation 1.5014501209453077 %",18.1%
same,inhibition,"PRVABC59, Concentration 99.9 uM, Number of replicates 2.0, Standard deviation 0.5242366631195996 %",40.6%
O=Cc1ccc(N2CCC(C(=O)N[C@@H](CO)Cc3ccccc3)CC2)cc1,inhibition,[1],25.7%
Cn1cc(CNC(=O)c2ccccc2CN)cn1,inhibition,"PRVABC59, Concentration 49.5 uM, Number of replicates 2.0, Standard deviation 1.6446243983296642 %",-2.74%
same,inhibition,"PRVABC59, Concentration 99.01 uM, Number of replicates 2.0, Standard deviation 1.7345169670013365 %",-2.88%
same,inhibition,"PRVABC59, Concentration 198.0 uM, Number of replicates 2.0, Standard deviation 2.800969211584616 %",-3.41%
O=C(N[C@@H](c1ccccc1)c1ccc(Br)cc1)c1cc(Cl)ccc1NS(=O)(=O)c1ccc(Oc2ccccc2Cl)cc1,inhibition,[2],8.89%
O=C(Cc1c[nH]c2cnccc12)N1CC[C@H](c2c[nH]c3ccccc23)C1,inhibition,"PRVABC59, Concentration 49.5 uM, Number of replicates 2.0, Standard deviation 5.539795761025617 %",-0.574%
same,inhibition,"PRVABC59, Concentration 99.01 uM, Number of replicates 2.0, Standard deviation 4.134550795134549 %",4.72%
same,inhibition,"PRVABC59, Concentration 198.0 uM, Number of replicates 2.0, Standard deviation 2.9999169193656203 %",12%
CC(=O)Nc1ccc(C(=O)Nc2ccccc2Cc2cccc3c(CO)cc(C)nc23)cn1,inhibition,"PRVABC59, Concentration 49.95 uM, Number of replicates 2.0, Standard deviation 1.3996571367154935 %",0.389%
same,inhibition,"PRVABC59, Concentration 99.9 uM, Number of replicates 2.0, Standard deviation 1.6236024775230975 %",4.89%
O=C(c1cc(Cl)ccc1NS(=O)(=O)c1ccc(Oc2ccccc2Cl)cc1)N(Cc1ccccc1)[C@@H](CO)c1ccccc1,inhibition,[2],25.2%
C[C@@H](c1cccc2ccccc12)N(C)C(=O)c1cc(Cl)ccc1NS(=O)(=O)c1ccc(Oc2ccccc2Cl)cc1,inhibition,[2],26.3%
CN1CCN2CCN(C(=O)C3CCN(c4ccc(C=O)cc4)CC3)C[C@H]2C1,inhibition,[1],22.9%
O=Cc1ccc(N2CCC(C(=O)Nc3cc(F)c(F)cc3Br)CC2)cc1,inhibition,[1],21.8%
Cc1cc(CO)c2cccc(Cc3ccccc3NC(=O)[C@@H]3CC(=O)CCN3)c2n1,inhibition,"PRVABC59, Concentration 49.95 uM, Number of replicates 2.0, Standard deviation 2.0918511827871282 %",2.78%
same,inhibition,"PRVABC59, Concentration 99.9 uM, Number of replicates 2.0, Standard deviation 0.8805117286023129 %",13.2%
O=Cc1ccc(N2CCC(C(=O)Nc3ccccc3)CC2)cc1,inhibition,[1],15.9%
Cc1cc(CO)c2cccc(Cc3cccc(NC(=O)[C@@H]4CCCC[C@H]4C(=O)O)c3)c2n1,inhibition,"PRVABC59, Concentration 49.95 uM, Number of replicates 2.0, Standard deviation 2.8502108076927426 %",-0.349%
same,inhibition,"PRVABC59, Concentration 99.9 uM, Number of replicates 2.0, Standard deviation 0.9670358368472974 %",2.6%
O=C(c1cc(Cl)ccc1NS(=O)(=O)c1ccc(Oc2ccccc2Cl)cc1)N1CCCCC[C@H]1c1ccco1,inhibition,[2],20.1%
O=Cc1ccc(N2CCC(C(=O)NC3CCN(C(=O)NC4CCCCC4)CC3)CC2)cc1,inhibition,[1],26.4%
O=C(O)c1cccc(NC(=O)c2ccc(Br)cc2)c1,inhibition,"PRVABC59, Concentration 49.5 uM, Number of replicates 2.0, Standard deviation 2.505145118039987 %",-0.68%
same,inhibition,"PRVABC59, Concentration 99.01 uM, Number of replicates 2.0, Standard deviation 2.5632594265497786 %",0.859%
same,inhibition,"PRVABC59, Concentration 198.0 uM, Number of replicates 2.0, Standard deviation 2.4906164250087053 %",4.24%
O=C(NCCc1ncc[nH]1)c1ccn([C@H]2CCCNC2)n1,inhibition,"PRVABC59, Concentration 49.5 uM, Number of replicates 2.0, Standard deviation 2.6538722637890775 %",-1.72%
same,inhibition,"PRVABC59, Concentration 99.01 uM, Number of replicates 2.0, Standard deviation 2.837743348434735 %",-2.6%
same,inhibition,"PRVABC59, Concentration 198.0 uM, Number of replicates 2.0, Standard deviation 3.5466682603723454 %",-3.41%
Cc1nn(Cc2ccccc2OC(F)F)cc1C1CCNCC1,inhibition,"PRVABC59, Concentration 49.5 uM, Number of replicates 2.0, Standard deviation 0.16570549790952246 %",-0.579%
same,inhibition,"PRVABC59, Concentration 99.01 uM, Number of replicates 2.0, Standard deviation 0.11392259435015849 %",3.22%
same,inhibition,"PRVABC59, Concentration 198.0 uM, Number of replicates 2.0, Standard deviation 0.14085004727637462 %",8.61%
C[C@@H](CNC(=O)C1CCN(c2ccc(C=O)cc2)CC1)N(C)c1ccccc1,inhibition,[1],27.6%
O=C(Nc1ccc(I)cc1)c1cc(Cl)ccc1NS(=O)(=O)c1ccc(Oc2ccccc2Cl)cc1,inhibition,[2],58.1%
O=Cc1ccc(N2CCC(C(=O)NC34CC5CC(CC(C5)C3)C4)CC2)cc1,inhibition,[1],24.4%
CC(C)(CO)NC(=O)c1cc(Cl)cc(NC(=O)c2cc(C(N)=O)[nH]n2)c1,inhibition,"PRVABC59, Concentration 49.5 uM, Number of replicates 2.0, Standard deviation 1.4378426872285457 %",-2.73%
same,inhibition,"PRVABC59, Concentration 99.01 uM, Number of replicates 2.0, Standard deviation 0.7178957000557602 %",-2.45%
same,inhibition,"PRVABC59, Concentration 198.0 uM, Number of replicates 2.0, Standard deviation 2.7115945855342938 %",-2.1%
Cc1cn(-c2cc(NC(=O)c3cc(Cl)ccc3NS(=O)(=O)c3ccc(Oc4ccccc4Cl)cc3)cc(C(F)(F)F)c2)cn1,inhibition,[2],26.2%
O=Cc1ccc(N2CCC(C(=O)Nc3ccnc(Br)c3)CC2)cc1,inhibition,[1],20.2%
Cc1cc(CO)c2cccc(Cc3ccccc3NC(=O)Cc3csc(Cc4ccccc4)n3)c2n1,inhibition,"PRVABC59, Concentration 99.9 uM, Number of replicates 2.0, Standard deviation 1.236787932049936 %",0.014%
CC(=O)N1CCC(N(C)C(=O)C2CCN(c3ccc(C=O)cc3)CC2)CC1,inhibition,[1],23.8%

# — ChEMBL document CHEMBL5606458, “ASAP - ZIKV NS2B-NS3 protease fluorescence single point” (2024)
